The record followed here is PubChem BioAssay AID1508624 (National Center for Advancing Translational Sciences (NCATS), 2021).

Hit rate of the full screen: of about 48,000 compounds, about 120 (0.25%) were called active. Another 4% or so got no clear call; they are omitted. Calls follow the shape of the dose curve; as a rule, active = well fitted activation curve with a large enough effect; inconclusive = small, poorly fitted or top-dose-only effect, or another doubt; inactive = no such curve, though single readings can be large or run the other way. Some of the results follow.

This assay is described as follows: Primary qHTS for Identification of Small Molecule Activators of Huntingtin-Antisense Promoter Activity. Also: nearly all actives have a fitted effect of over 55% in size. The settings on record: HEK293 HTT-AS promoter firefly luciferase reporter (activity 0% = vehicle and -100% = no light), 24 h; series mostly up to 57.5 µM; activity change, positive = activation: at the top concentration. A digest of the protocol: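 HEK293 cells carrying firefly luciferase reporters were seeded at 2,500 per well in Opti-MEM and cultured for 24 h. They were then treated with compounds at up to 57.5 uM final for 24 h at 37 degrees C before Dual-Glo luminescence readout.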
A general note: Quantitative high-throughput screening tests each substance at several concentrations.
On to `CC(c1cc2ccccc2s1)N(O)C(N)=O` (configuration not stated), for which the activity change, positive = activation result is “inactive”. Regarding `Cc1nc2nc[nH]n2c(=O)c1NS(=O)(=O)c1ccc(Br)cc1`, the “activity change, positive = activation” value was inactive: -9.69%. For `CCC(=O)N1c2ccccc2CC1C(=O)NCCN1CCN(c2cc(Cl)ccc2C)CC1` (configuration not stated), the “activity change, positive = activation” value was inactive: -33.2%. On to `O=C(Cc1ccc(Cl)cc1)Nc1ccc2oc(-c3ccc(F)cc3)nc2c1`, for which the “activity change, positive = activation” value is inactive: -20.1%. Take `COC(=O)c1ccccc1NC(=O)C(Cc1ccccc1)N1Cc2ccccc2C1=O` (configuration not stated): the “activity change, positive = activation” value was inactive: -0.614%.

For `Cc1cc(C)cc(OCC(=O)N2CCC(c3nc4ccccc4o3)CC2)c1`, the “activity change, positive = activation” value was inactive: -14.6%. Take `COc1ccc(C)cc1NC(=O)Cn1cc(S(=O)(=O)N2CCC(C)CC2)c2ccccc2c1=O`: the “activity change, positive = activation” value is inactive: -22.5%. The figure for `CCOc1ccc(NC(=O)c2c(NCc3cc(OC)c(OC)cc3OC)sc3c2CCCC3)cc1` is inactive: -16.8%; for `COc1ccc(NC(=O)Cn2c(-c3ccc(F)cc3)cc(C(C)=O)c2C)c(OC)c1` it is inactive: -11.1%. The figure for `O=S(=O)(c1ccccc1)n1nc(-c2ccc(Cl)cc2)nc1NCc1ccccc1` is inactive: 10.8%.

Turning to `CC(=O)Nc1ccc(S(=O)(=O)NCC2CCC(C(=O)NCCc3ccc(C)cc3)CC2)cc1` (configuration not stated), the “activity change, positive = activation” value is inactive: -14.5%. To `COc1ccc(CCNC(=O)Cn2c(=O)nc(-c3ccccc3)c3cc(Cl)ccc32)cc1OC` belongs inactive: -18.5%; to `CC(=O)c1cccc(NC(=O)c2ccc3c(c2)N(Cc2ccc(C)cc2)CCS3)c1`, inactive: 20.8%.

For the compound `N#C/C(=C\c1ccc(F)cc1)c1nc(-c2ccc(-c3ccccc3)cc2)cs1`, the “activity change, positive = activation” value is inactive: 7.24%. As for `COCCCNc1nc2c(c(=O)[nH]c(=O)n2C)n1CC(O)COc1ccc(Cl)cc1` (configuration not stated), the “activity change, positive = activation” value is inactive: -1.9%. `COc1cccc(CC(=O)Nc2c(C(=O)N3CCN(c4ccccc4F)CC3)oc3ccccc23)c1`: the “activity change, positive = activation” value was inactive: -29.5%. To `Cc1cc(C)c2c(=O)c3c(oc2c1)C(=O)N(CCCOC(C)C)C3c1ccccc1F` (configuration not stated) belongs inactive: -13.5%. The figure for `CCCC1=Nc2cc(C(=O)NC3CCCCC3)ccc2Sc2ccc(C)cc21` is inactive: -39.6%; for `CC[C@@]1(O)C(=O)OCc2c1cc1n(c2=O)Cc2c-1nc1ccccc1c2/C=N/OC(C)(C)C` it is inactive: -40.4%. For `COC(=O)c1c(NC(=O)c2ccc(C(C)(C)C)cc2)sc2c1CCC(C)C2` (configuration not stated), the “activity change, positive = activation” value is inactive: -8.83%. Take `CCN(C(=O)Cn1nc(Cc2ccncc2)c2ccccc2c1=O)c1ccc(OC)cc1`: the “activity change, positive = activation” value is inactive: -8.75%.

On to `CCc1ccc(NC(=O)CNC(=O)Cn2c(C)cc3ccccc3c2=O)cc1`, for which the “activity change, positive = activation” value was inactive: -16.1%. Regarding `CCOc1ccc(CCNC(=O)c2ccc(CSCc3ccccc3C)o2)cc1OCC`, the “activity change, positive = activation” value is inactive: -39.7%.

For the compound `O=C(CSc1nc(=O)n(Cc2ccncc2)c2c1CCC2)Nc1cccc(F)c1`, the “activity change, positive = activation” value was inactive: -31.7%.

Regarding `CCN(C(=O)C(NS(=O)(=O)c1ccc(Br)s1)c1ccccc1)c1ccc(C)c(C)c1` (configuration not stated), the “activity change, positive = activation” value was inactive: -43.6%. To `CC1(C)CC(=O)c2cc(-c3nc(-c4ccc(F)cc4)cs3)c(=O)[nH]c2C1` belongs inactive: -8.26%; to `CCC(=O)N1c2ccccc2C(C)(c2ccccc2)CC1(C)C` (configuration not stated), inactive: -3.88%; to `CN1CCN(C(=O)c2ccc3c(c2)N(Cc2ccc(F)cc2)C(=O)c2ccccc2S3=O)CC1` (configuration not stated), inactive: -7.07%.

On to `CC(C)(C)OC(=O)N1CCC(c2c(C(=O)NCc3ccccc3)cnn2-c2ccc(F)cc2)CC1`, for which the “activity change, positive = activation” value is inactive: -0.417%. To `O=C1Nc2cc(Cl)ccc2Oc2ccccc21` belongs inactive: -15.3%; to `O=C(CSc1nc(-c2ccccc2)no1)N1CCN(c2ccccc2)CC1`, inactive: -5.86%. The figure for `CCOc1ccccc1NC(=O)c1cc(S(=O)(=O)N2CCOCC2)cn1C` is inactive: -14.2%.

For the compound `CCN1CCc2c(sc(-n3cccc3)c2C(C)NC(=O)Nc2cc(Cl)c(OC)cc2OC)C1` (configuration not stated), the “activity change, positive = activation” value was inactive: -0.554%. `Cc1ccc(NC(=O)c2cc(S(=O)(=O)N3CCCCCC3)ccc2F)cc1F`: the “activity change, positive = activation” value was inactive: -29.2%. The figure for `CCCNC(=O)c1cnn2c(C(F)F)cc(-c3ccccc3)nc12` is inactive: -17.4%; for `Cc1sc2c(c1C)c(=O)n(Cc1ccccc1)c(=O)n2CC(=O)N(C)c1ccccc1` it is inactive: 7.65%; for `CC1(C)CC(=O)c2cc(-c3nc(-c4ccc(Cl)cc4)cs3)c(=O)[nH]c2C1` it is inactive: -3.97%. The figure for `O=C(COc1cccc(Cl)c1)N1CCC(c2nc3ccccc3o2)CC1` is inactive: -21.7%; for `CCOc1ccc(NC(=O)CSc2nc3c([nH]c4ccccc43)c(=O)n2-c2cc(C)cc(C)c2)cc1` it is inactive: -14.5%. Turning to `O=C(NCc1ccccc1Cl)C1CCCN(C(=O)c2cnn(-c3ccc(F)cc3)c2-n2cccc2)C1` (configuration not stated), the “activity change, positive = activation” value was inactive: -38.7%.

As for `Cc1cccc(N2CCN(C(=O)c3cnc4c(C)cccn4c3=O)CC2C)c1` (configuration not stated), the “activity change, positive = activation” value is inactive: -1.9%. For `Cc1nc2c(-c3ccccc3)c(C)nn2c(C)c1CCC(=O)NCCc1ccccc1`, the “activity change, positive = activation” value was inactive: -4.99%.

`CC(C)c1ccc(NC(=O)N2CCN(c3ccc(Cl)c(Cl)c3)CC2)cc1`: the “activity change, positive = activation” value is inactive: -41.5%.

On to `NCCc1ccn[nH]1`, for which the “activity change, positive = activation” value was inactive: -6.21%.

For the compound `CCOC(=O)c1c(C)oc2c1cc(NS(=O)(=O)c1ccc(C)cc1)c1ccccc12`, the “activity change, positive = activation” value is inactive: -17.8%. To `Cc1ccc(N2CCN(C(=O)c3c(C)oc4ncnc(N5CCCCC5)c34)CC2)c(C)c1` belongs inactive: -38.8%. The figure for `O=C(NC1CC(=O)N(c2ccc(Cl)cc2)C1)C1CCCC1` (configuration not stated) is inactive: -11.4%.
